From the supplement of paper PMC8285479
Where a name gives a salt, the structure may show the parent alone. ± gives the standard deviation of the averaged measurements. The full ranking holds about 1,900 compounds; the median of “normalised cell viability (NPI; 0 = phenylarsine oxide control, 1 = DMSO control)” is about 1, and the lowest 2% start at about 0.039. This is one part of the list.

Test system: NCI-H1944
Assay: normalised cell viability (NPI; 0 = phenylarsine oxide control, 1 = DMSO control) (fraction of DMSO control); NCI-H1944 is a non-small cell lung cancer line; higher = more viable cells (less compound toxicity)
Settings: 6 days
[1] = glucocorticoid arm: hydrocortisone 2.75 uM co-treatment, compound 1 µM
[2] = glucocorticoid arm: hydrocortisone 2.75 uM co-treatment, compound 5 µM
[3] = glucocorticoid arm: hydrocortisone 2.75 uM pre-treated 2 days and continued, compound 1 µM
[4] = glucocorticoid arm: hydrocortisone 2.75 uM pre-treated 2 days and continued, compound 5 µM
[5] = glucocorticoid arm: vehicle, compound 1 µM
[6] = glucocorticoid arm: vehicle, compound 5 µM
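Also: CTB read-out in 384-well plates, mean of triplicate wells, normalised per plate against 1 µM phenylarsine oxide and 0.1% DMSO, compounds added 24 h after seeding.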

## COc1ccc(N(C(=O)Oc2c(C)cccc2C)c2ccnc(Nc3ccc(N4CCN(C)CC4)cc3)n2)c(OC)c1
[1]
  normalised cell viability: 1.027 ± 0.0058
[2]
  normalised cell viability: 1.04 ± 0.043
[3]
  normalised cell viability: 1.027 ± 0.0058
[4]
  normalised cell viability: 0.672 ± 0.16
[5]
  normalised cell viability: 1.003 ± 0.0058
[6]
  normalised cell viability: 1.01

## Cc1sc2ccccc2c1CC1=NCCN1 [Benazoline oxalate]
[1]
  normalised cell viability: 0.999 ± 0.011
[2]
  normalised cell viability: 1.01 ± 0.017
[3]
  normalised cell viability: 0.992 ± 0.016
[4]
  normalised cell viability: 1.02 ± 0.021
[5]
  normalised cell viability: 0.9927 ± 0.0067
[6]
  normalised cell viability: 1.01

## O=C(O)[C@@H]1[C@H](C(=O)O)[C@H]2CC[C@@H]1O2 [Endothall]
[1]
  normalised cell viability: 1.01 ± 0.01
[2]
  normalised cell viability: 1.05 ± 0.01
[3]
  normalised cell viability: 1.007 ± 0.0058
[4]
  normalised cell viability: 1.07 ± 0.015
[5]
  normalised cell viability: 0.9967 ± 0.0025
[6]
  normalised cell viability: 1.007 ± 0.0058

## N[C@@H]1C[C@H]1c1ccccc1 [Tranylcypromine (2-PCPA) HCl]
[1]
  normalised cell viability: 0.9843 ± 0.0095
[2]
  normalised cell viability: 0.994 ± 0.016
[3]
  normalised cell viability: 0.981 ± 0.015
[4]
  normalised cell viability: 0.995 ± 0.013
[5]
  normalised cell viability: 0.9983 ± 0.0011
[6]
  normalised cell viability: 1.003 ± 0.0058

## N[C@@H]1C[C@H]1c1ccccc1 [Tranylcypromine hydrochloride]
[1]
  normalised cell viability: 0.9943 ± 0.0029
[2]
  normalised cell viability: 0.966 ± 0.013
[3]
  normalised cell viability: 1.01 ± 0.024
[4]
  normalised cell viability: 0.97 ± 0.015
[5]
  normalised cell viability: 0.995 ± 0.0062
[6]
  normalised cell viability: 0.9807 ± 0.0031

## CCCN(CCC)[C@@H]1CCc2c(F)ccc(O)c2C1 [R(+)-UH-301 hydrochloride]
[1]
  normalised cell viability: 1.013 ± 0.0058
[2]
  normalised cell viability: 1.017 ± 0.0058
[3]
  normalised cell viability: 1.03 ± 0.021
[4]
  normalised cell viability: 1.017 ± 0.0058
[5]
  normalised cell viability: 1.02
[6]
  normalised cell viability: 1.017 ± 0.0058

## NCC(CC(=O)O)c1ccc(Cl)cc1 (racemic) [(±)-Baclofen]
[1]
  normalised cell viability: 1.006 ± 0.0069
[2]
  normalised cell viability: 1.03 ± 0.021
[3]
  normalised cell viability: 1.002 ± 0.0068
[4]
  normalised cell viability: 1.01 ± 0.037
[5]
  normalised cell viability: 0.9827 ± 0.004
[6]
  normalised cell viability: 0.954 ± 0.012

## COC[C@H]1OC(=O)c2coc3c2[C@@]1(C)C1=C(C3=O)[C@@H]2CCC(=O)[C@@]2(C)C[C@H]1OC(C)=O [Wortmannin]
[1]
  normalised cell viability: 0.857 ± 0.04
[2]
  normalised cell viability: 0.706 ± 0.025
[3]
  normalised cell viability: 0.833 ± 0.017
[4]
  normalised cell viability: 0.737 ± 0.029
[5]
  normalised cell viability: 0.96 ± 0.012
[6]
  normalised cell viability: 0.89 ± 0.017

## CNCCc1ccc(O)c(O)c1 [N-Methyldopamine hydrochloride]
[1]
  normalised cell viability: 1.002 ± 0.0068
[2]
  normalised cell viability: 0.9903 ± 0.0067
[3]
  normalised cell viability: 1.01
[4]
  normalised cell viability: 1 ± 0.024
[5]
  normalised cell viability: 1.003 ± 0.0061
[6]
  normalised cell viability: 1.001 ± 0.0078

## Clc1cnc(Oc2ccc(Oc3ncc(Cl)cc3Cl)cc2)c(Cl)c1
[1]
  normalised cell viability: 0.9947 ± 0.0092
[2]
  normalised cell viability: 0.9947 ± 0.0051
[3]
  normalised cell viability: 1.02 ± 0.026
[4]
  normalised cell viability: 1.01 ± 0.012
[5]
  normalised cell viability: 0.9823 ± 0.0055
[6]
  normalised cell viability: 0.9837 ± 0.0035

## COc1ccc2c(c1)[C@]13CCCC[C@@H]1[C@H](C2)N(C)CC3 [Dextromethorphan hydrobromide monohydrate]
[1]
  normalised cell viability: 0.99 ± 0.017
[2]
  normalised cell viability: 0.96 ± 0.01
[3]
  normalised cell viability: 0.997 ± 0.022
[4]
  normalised cell viability: 0.999 ± 0.018
[5]
  normalised cell viability: 0.9807 ± 0.0051
[6]
  normalised cell viability: 0.99 ± 0.0066

## Cc1cccc(C(C)c2c[nH]cn2)c1C (stereo not given) [Medetomidine HCl]
[1]
  normalised cell viability: 1.017 ± 0.0058
[2]
  normalised cell viability: 1.07 ± 0.023
[3]
  normalised cell viability: 1.01 ± 0.013
[4]
  normalised cell viability: 1.033 ± 0.0058
[5]
  normalised cell viability: 1.013 ± 0.0058
[6]
  normalised cell viability: 1.013 ± 0.0058

## CNCC(O)c1ccc(O)cc1 (racemic) [(±)-Synephrine]
[1]
  normalised cell viability: 0.987 ± 0.013
[2]
  normalised cell viability: 1.01 ± 0.015
[3]
  normalised cell viability: 0.924 ± 0.15
[4]
  normalised cell viability: 0.988 ± 0.0046
[5]
  normalised cell viability: 1.01
[6]
  normalised cell viability: 1.02 ± 0.021

## CN(N=O)c1ccc(O)c(O)c1 [Me-3,4-dephostatin]
[1]
  normalised cell viability: 1.017 ± 0.0058
[2]
  normalised cell viability: 1.01 ± 0.017
[3]
  normalised cell viability: 1.007 ± 0.0058
[4]
  normalised cell viability: 1.05 ± 0.086
[5]
  normalised cell viability: 1.01 ± 0.011
[6]
  normalised cell viability: 1.02 ± 0.01

## Cc1ccccc1-n1c(Cn2cnc3c(N)ncnc32)nc2cccc(C)c2c1=O
[1]
  normalised cell viability: 1.003 ± 0.0058
[2]
  normalised cell viability: 1.02 ± 0.028
[3]
  normalised cell viability: 1 ± 0.015
[4]
  normalised cell viability: 1.02 ± 0.031
[5]
  normalised cell viability: 1 ± 0.017
[6]
  normalised cell viability: 1.01 ± 0.011

## CCCN1CCC[C@@H]2Cc3nc(N)ncc3C[C@H]21 [Quinelorane dihydrochloride]
[1]
  normalised cell viability: 0.998 ± 0.0017
[2]
  normalised cell viability: 1 ± 0.018
[3]
  normalised cell viability: 0.969 ± 0.054
[4]
  normalised cell viability: 1.017 ± 0.0058
[5]
  normalised cell viability: 0.997 ± 0.012
[6]
  normalised cell viability: 0.997 ± 0.002

## C=CC[C@]1(O)CC[C@H]2[C@@H]3CCC4=CC(=O)CCC4=C3C=C[C@@]21C [Altrenogest]
[1]
  normalised cell viability: 1.03
[2]
  normalised cell viability: 1.06 ± 0.021
[3]
  normalised cell viability: 1.01 ± 0.018
[4]
  normalised cell viability: 1.06 ± 0.015
[5]
  normalised cell viability: 1.017 ± 0.0058
[6]
  normalised cell viability: 1.007 ± 0.0058

## CC(Cc1ccc(O)cc1)NCC(O)c1cc(O)cc(O)c1 (stereo not given) [Fenoterol hydrobromide]
[1]
  normalised cell viability: 1 ± 0.013
[2]
  normalised cell viability: 1.01 ± 0.028
[3]
  normalised cell viability: 1.01 ± 0.019
[4]
  normalised cell viability: 1.03 ± 0.011
[5]
  normalised cell viability: 0.99967 ± 0.00058
[6]
  normalised cell viability: 0.9967 ± 0.0042

## C1CCc2nnnn2CC1 [Pentylenetetrazole]
[1]
  normalised cell viability: 1.01
[2]
  normalised cell viability: 1.02 ± 0.023
[3]
  normalised cell viability: 1.01 ± 0.011
[4]
  normalised cell viability: 1.02 ± 0.023
[5]
  normalised cell viability: 0.999 ± 0.0017
[6]
  normalised cell viability: 1.01 ± 0.019

## Cn1cnc(CCN)c1 [1-Methylhistamine dihydrochloride]
[1]
  normalised cell viability: 0.998 ± 0.013
[2]
  normalised cell viability: 0.98 ± 0.011
[3]
  normalised cell viability: 0.996 ± 0.025
[4]
  normalised cell viability: 0.961 ± 0.022
[5]
  normalised cell viability: 1.002 ± 0.0068
[6]
  normalised cell viability: 1.01 ± 0.018

## C=CCN1CC[C@]23c4c5ccc(O)c4O[C@H]2/C(=N/NC(=O)c2ccccc2)CC[C@@]3(O)[C@H]1C5 [Naloxone benzoylhydrazone]
[1]
  normalised cell viability: 0.998 ± 0.002
[2]
  normalised cell viability: 1.01 ± 0.03
[3]
  normalised cell viability: 1 ± 0.015
[4]
  normalised cell viability: 1.03 ± 0.071
[5]
  normalised cell viability: 0.991 ± 0.0035
[6]
  normalised cell viability: 1 ± 0.017

## S=C(NC1CCCCC1)N1CCC(c2cnc[nH]2)CC1 [Thioperamide maleate]
[1]
  normalised cell viability: 1 ± 0.011
[2]
  normalised cell viability: 1.02 ± 0.01
[3]
  normalised cell viability: 1.02 ± 0.028
[4]
  normalised cell viability: 1.003 ± 0.0058
[5]
  normalised cell viability: 0.9983 ± 0.0015
[6]
  normalised cell viability: 1

## NC(N)=NOCC[C@H](N)C(=O)O [L-Canavanine]
[1]
  normalised cell viability: 1 ± 0.0095
[2]
  normalised cell viability: 1.01 ± 0.01
[3]
  normalised cell viability: 1.003 ± 0.0058
[4]
  normalised cell viability: 0.988 ± 0.011
[5]
  normalised cell viability: 1 ± 0.0091
[6]
  normalised cell viability: 1.005 ± 0.0092

## NC(N)=NOCC[C@H](N)C(=O)O [L-Canavanine sulfate]
[1]
  normalised cell viability: 0.991 ± 0.018
[2]
  normalised cell viability: 0.999 ± 0.011
[3]
  normalised cell viability: 1.003 ± 0.0058
[4]
  normalised cell viability: 0.995 ± 0.0071
[5]
  normalised cell viability: 1.01
[6]
  normalised cell viability: 1.007 ± 0.0058

## C=C(C)[C@H]1CN[C@H](C(=O)O)[C@H]1CC(=O)O [Kainic acid]
[1]
  normalised cell viability: 0.993 ± 0.015
[2]
  normalised cell viability: 0.995 ± 0.025
[3]
  normalised cell viability: 1.01 ± 0.013
[4]
  normalised cell viability: 1.03 ± 0.092
[5]
  normalised cell viability: 0.9897 ± 0.0076
[6]
  normalised cell viability: 0.995 ± 0.024
